Data: the supplement of paper PMC8285479
Counter-ions that a name gives are not always drawn. ± gives the standard deviation of the averaged measurements. The full ranking holds about 1,900 compounds; the median of “normalised cell viability (NPI; 0 = phenylarsine oxide control, 1 = DMSO control)” is about 1, and the lowest 2% start at about 0.039. Some of the results follow.

System: NCI-H1944
Test: normalised cell viability (NPI; 0 = phenylarsine oxide control, 1 = DMSO control) (fraction of DMSO control); NCI-H1944 is a non-small cell lung cancer line; higher = more viable cells (less compound toxicity)
Conditions: 6 days
[1] = glucocorticoid arm: hydrocortisone 2.75 uM co-treatment, compound 1 µM
[2] = glucocorticoid arm: hydrocortisone 2.75 uM co-treatment, compound 5 µM
[3] = glucocorticoid arm: hydrocortisone 2.75 uM pre-treated 2 days and continued, compound 1 µM
[4] = glucocorticoid arm: hydrocortisone 2.75 uM pre-treated 2 days and continued, compound 5 µM
[5] = glucocorticoid arm: vehicle, compound 1 µM
[6] = glucocorticoid arm: vehicle, compound 5 µM
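Note: CTB read-out in 384-well plates, mean of triplicate wells, normalised per plate against 1 µM phenylarsine oxide and 0.1% DMSO, compounds added 24 h after seeding.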

| Structure (SMILES) | normalised cell viability [1] | normalised cell viability [2] | normalised cell viability [3] | normalised cell viability [4] | normalised cell viability [5] | normalised cell viability [6] |
| --- | --- | --- | --- | --- | --- | --- |
| CO[C@H]1CC=C2CCN3CCC4=C(CC(=O)OC4)[C@]23C1 [Dihydro-beta-erythroidine hydrobromide] | 0.9913 ± 0.0055 | 1 ± 0.016 | 0.9997 ± 0.0091 | 0.988 ± 0.019 | 0.9943 ± 0.0015 | 0.991 ± 0.011 |
| OC[C@H]1O[C@@H](n2cnc3cc(Cl)c(Cl)cc32)[C@H](O)[C@@H]1O [5,6-Dichlorobenzimidazole riboside] | 1.007 ± 0.0058 | 0.998 ± 0.013 | 1.007 ± 0.0058 | 1.03 ± 0.01 | 0.988 ± 0.008 | 0.991 ± 0.0053 |
| COc1cc(C=C(C#N)C#N)cc(O)c1O [Tyrphostin AG 34] | 1.02 ± 0.015 | 1.02 ± 0.017 | 0.896 ± 0.23 | 1.02 ± 0.015 | 1.03 ± 0.01 | 1.023 ± 0.0058 |
| C[N+]1(C)CCOC(O)(c2ccc(-c3ccc(C4(O)C[N+](C)(C)CCO4)cc3)cc2)C1 (configuration not stated) [Hemicholinium-3] | 1.006 ± 0.0075 | 1.017 ± 0.0058 | 1.017 ± 0.0058 | 1 ± 0.0095 | 1.003 ± 0.0058 | 1 |
| Nc1ccncc1 [4-Aminopyridine] | 0.9723 ± 0.0046 | 0.971 ± 0.0072 | 0.98 ± 0.006 | 0.981 ± 0.028 | 0.989 ± 0.013 | 0.99 ± 0.0036 |
| COc1ccc(-n2nc(C(F)(F)F)cc2-c2ccc(Cl)cc2)cc1 | 0.996 ± 0.0069 | 0.999 ± 0.036 | 0.955 ± 0.1 | 0.997 ± 0.025 | 1.017 ± 0.0058 | 1.013 ± 0.0058 |
| CCS(=O)(=O)Nc1cccc(C(=C2CCCCC2)c2cnc[nH]2)c1 | 1.006 ± 0.0063 | 1.04 ± 0.015 | 1.01 ± 0.011 | 1.04 ± 0.028 | 0.985 ± 0.013 | 0.9933 ± 0.0061 |
| NCC(O)c1cc(O)c(O)cc1F (configuration not stated) [6-Fluoronorepinephrine hydrochloride] | 1.03 ± 0.038 | 1 ± 0.024 | 0.9913 ± 0.009 | 1.01 ± 0.025 | 1.003 ± 0.0058 | 1.003 ± 0.0058 |
| O=C(O[C@H]1C[C@H]2CC[C@@H](C1)[N+]21CCCC1)C(O)(c1ccccc1)c1ccccc1 [Trospium chloride] | 1.01 ± 0.013 | 1 ± 0.035 | 1.003 ± 0.0061 | 1 ± 0.02 | 1.006 ± 0.0063 | 1.002 ± 0.007 |
| C=CCN1CCc2cccc3c2[C@H]1Cc1ccc(O)c(O)c1-3 [R(-)-N-Allylnorapomorphine hydrobromide] | 0.992 ± 0.0052 | 0.949 ± 0.0089 | 0.988 ± 0.011 | 0.968 ± 0.02 | 0.9917 ± 0.0042 | 0.9757 ± 0.0015 |
| Cc1[nH]c2ccc(O)cc2c1CCN [2-Methyl-5-hydroxytryptamine maleate] | 1.002 ± 0.0072 | 1.01 ± 0.024 | 1 ± 0.011 | 1.06 ± 0.11 | 0.986 ± 0.002 | 0.993 ± 0.015 |
| CCCCCCCCCCCCCC(=O)O[C@@H]1[C@@H](C)[C@@]2(O)[C@@H](C=C(CO)C[C@]3(O)C(=O)C(C)=C[C@@H]23)[C@@H]2C(C)(C)[C@]12OC(C)=O [Phorbol 12-myristate 13-acetate] | 1.06 ± 0.015 | 1.13 ± 0.029 | 1.08 ± 0.045 | 1.16 ± 0.021 | 1.03 ± 0.01 | 1.01 ± 0.019 |
| CC(C)[C@@]1(NC(=O)[C@@H]2C[C@@H]3c4cccc5[nH]cc(c45)C[C@H]3N(C)C2)O[C@@]2(O)[C@@H]3CCCN3C(=O)[C@H](Cc3ccccc3)N2C1=O [Dihydroergocristine methanesulfonate] | 0.9953 ± 0.0081 | 0.978 ± 0.019 | 0.9933 ± 0.0059 | 1.03 ± 0.011 | 0.9913 ± 0.0076 | 0.9997 ± 0.0093 |
| CN1CCC(c2c[nH]c3ccc(O)cc23)CC1 |  |  |  |  | 1.01 |  |
| CC1Cc2cc3c(cc2C(c2ccc(N)cc2)=NN1)OCO3 (configuration not stated) | 1.01 ± 0.01 | 1.02 ± 0.021 | 1.01 | 1.01 ± 0.037 | 0.9943 ± 0.0035 | 0.9943 ± 0.006 |
| NC(=O)c1ccc(OCC(O)CN2CC=C(c3ccc(F)cc3)CC2)cc1 (configuration not stated) | 0.979 ± 0.011 | 0.952 ± 0.011 | 0.999 ± 0.011 | 0.955 ± 0.022 | 0.986 ± 0.0027 | 0.984 ± 0.0072 |

| Structure (SMILES) | normalised cell viability [1] | normalised cell viability [2] | normalised cell viability [3] | normalised cell viability [4] | normalised cell viability [5] | normalised cell viability [6] |
| --- | --- | --- | --- | --- | --- | --- |
| C[N+](C)(C)CC#CCN1CCCC1=O [Oxotremorine methiodide] | 1.033 ± 0.0058 | 1.03 ± 0.021 | 1.017 ± 0.0058 | 1.04 ± 0.056 | 1.003 ± 0.0058 | 1.02 ± 0.015 |
| COc1ccc(CNC(=O)/C=C/c2ccc3[nH]cc(CCN(C)C)c3c2)cc1 | 1.003 ± 0.0061 | 1.02 ± 0.011 | 1.003 ± 0.0058 | 1.01 ± 0.014 | 0.9943 ± 0.0049 | 0.996 ± 0.0036 |
| NC(=O)CN1CC(O)CC1=O (configuration not stated) [Oxiracetam] | 1.004 ± 0.0098 | 1.01 ± 0.035 | 1.01 ± 0.01 | 1.05 ± 0.07 | 0.9897 ± 0.0042 | 0.9997 ± 0.0091 |
| C[N+]1(C)CCN(c2ccccc2)CC1 [1,1-Dimethyl-4-phenyl-piperazinium iodide] | 1.001 ± 0.009 | 1.001 ± 0.0081 | 1.01 ± 0.016 | 1.01 ± 0.011 | 0.9977 ± 0.004 | 1.003 ± 0.0058 |
| C[C@H](Cc1ccc2c(c1)OC(C(=O)O)(C(=O)O)O2)NC[C@H](O)c1cccc(Cl)c1 | 0.9927 ± 0.0067 | 1.005 ± 0.0092 | 0.9937 ± 0.004 | 1 ± 0.022 | 0.985 ± 0.0085 | 0.9877 ± 0.0059 |
| CCCN1CCC[C@H](c2cccc(O)c2)C1 [R(+)-3PPP hydrochloride] | 0.968 ± 0.01 | 0.936 ± 0.012 | 0.998 ± 0.02 | 0.962 ± 0.011 | 0.968 ± 0.0035 | 0.9747 ± 0.0071 |
| NC(=O)COc1c(F)cc(SCCNS(=O)(=O)c2ccccc2)cc1F | 1.002 ± 0.0076 | 1.02 ± 0.023 | 0.988 ± 0.016 | 1.03 ± 0.021 | 1 | 1.01 ± 0.015 |
| CCN(C)C(=O)Oc1cccc([C@H](C)N(C)C)c1 [Rivastigmine Tartrate] | 1.005 ± 0.0092 | 1.043 ± 0.0058 | 1.01 ± 0.014 | 1.02 ± 0.018 | 1.007 ± 0.0058 | 0.992 ± 0.007 |
| CN(C)C(=O)Oc1cc(OC(=O)N(C)C)cc(C(O)CNC(C)(C)C)c1 (configuration not stated) [Bambuterol HCl] | 0.986 ± 0.014 | 0.982 ± 0.015 | 1 ± 0.024 | 0.968 ± 0.02 | 0.982 ± 0.0087 | 0.999 ± 0.011 |
| CN(C(=O)Cc1ccc(Cl)c(Cl)c1)C(CN1CCCC1)c1cccc(OCC(=O)O)c1 (configuration not stated) [ICI 204,448 hydrochloride] | 1.007 ± 0.0058 | 1.02 ± 0.024 | 1.01 | 1.04 ± 0.076 | 0.997 ± 0.0027 | 1 ± 0.014 |
| NCCc1ccc(O)cc1 [4-Hydroxyphenethylamine hydrochloride] | 0.9857 ± 0.0021 | 1.01 | 0.831 ± 0.31 | 0.9977 ± 0.004 | 0.995 | 0.991 ± 0.0046 |
| C[N+]1(C)[C@@H]2C[C@@H](OC(=O)[C@H](CO)c3ccccc3)C[C@H]1[C@@H]1O[C@@H]12 [(-)-Scopolamine methyl bromide] | 1.01 ± 0.013 | 1.01 ± 0.023 | 1.01 ± 0.027 | 1.01 ± 0.023 | 1.01 ± 0.01 | 1.017 ± 0.0058 |
| C[N+]1(C)[C@@H]2C[C@@H](OC(=O)[C@H](CO)c3ccccc3)C[C@H]1[C@@H]1O[C@@H]12 [Methscopolamine] | 1.02 ± 0.01 | 1 ± 0.019 | 1.03 ± 0.02 | 0.988 ± 0.028 | 1.01 ± 0.011 | 0.9967 ± 0.0049 |
| CCn1cc(C(=O)O)c(=O)c2cc3c(cc21)OCO3 [Oxolinic acid] | 1.007 ± 0.0058 | 1.02 ± 0.015 | 1.007 ± 0.0058 | 1.05 ± 0.076 | 1.01 | 1.02 ± 0.017 |
| NCC(O)c1ccc(O)cc1 (racemic) [(±)-Octopamine hydrochloride] | 1.01 ± 0.014 | 1.02 ± 0.02 | 1.01 ± 0.011 | 1.05 ± 0.079 | 0.9943 ± 0.0025 | 0.9977 ± 0.004 |
| C[C@@H]1O[C@@H](O[C@H]2C[C@@H](O)[C@]3(CO)[C@H]4[C@H](O)C[C@]5(C)[C@@H](C6=CC(=O)OC6)CC[C@]5(O)[C@@H]4CC[C@]3(O)C2)[C@H](O)[C@H](O)[C@H]1O [Ouabain] | 0.00947 ± 0.006 | 0.00628 ± 0.0019 | 0.0931 ± 0.013 | 0.07 ± 0.028 | 0.00711 ± 0.0021 | 0.00424 ± 0.002 |
